Experimental findings from the RNAGym collection of RNA variant scans (doi:10.7554/elife.90254) are described below.

B1: LINE1-full (parent)
chain: UACGUAGGUGGUUUUCCCCUGAUAGUGCUAAGGGGGCCUGGAAGUUUGGACUGGGCAGAGCUCAACACAGCGUGGCAAAGUGGCUGUGGCUAGACUGCCUCUCUGGAUUCCUCGUCACUCAGCAGGGCAUCUCUGAGAGAAAUGCC

The source gives no read counts; variants with many changes may rest on few reads.

In this series the parent is B1. The series is described as follows: self-cleavage, relative activity (ratio to wild type); higher = more cleavage; in vitro, sequencing; the parent is a self-cleaving ribozyme.
Turning to A78G U85C G114A U132C, the self-cleavage was 0.07.

On to A79G U104A U109A A141G U143C, for which the self-cleavage amounted to 0.77.

Turning to U81C A92G G97A A140G, the self-cleavage was determined as 0.09.

As for A78G C113U C120U, the self-cleavage stood at 1.12.

With U91A G114A C123U U143A, the self-cleavage stood at 0.32.

For C84G C99U U143A, the self-cleavage was 0.1.

On to A78G A79G U134C, for which the self-cleavage came to 1.17.

On to A79G U112A U132C, for which the self-cleavage is 2.35.

For A79U G80A A92U U104A U112C U115A U134A, the self-cleavage is 2.06.

A77U U96C A138G: the self-cleavage was determined as 0.19.

Take U87A U130A A141G: the self-cleavage amounted to 0.4.

Consider U85C A124G A129U, for which the self-cleavage was 0.21.

Consider C84A G114A A140G, for which the self-cleavage turned out to be 0.06.

Regarding C84U U134G C146U, the self-cleavage is 0.07.

In the case of U87A U119A G144A, the self-cleavage was determined as 0.18.

U85A A138G U143A: the self-cleavage was 0.1.

For G83A A121G C128U, the self-cleavage was 0.51.

On to A77U U104C A124C, for which the self-cleavage was 1.93.

A78G U96C A142G: the self-cleavage is 0.31.

As for A78G C99U U132C A138G, the self-cleavage stood at 0.85.

On to G89A U112A A138G A141G, for which the self-cleavage was determined as 0.05.

U81A U109C A124G: the self-cleavage is 1.56.

For the variant G88A A92U U130C, the self-cleavage stood at 0.

Turning to A78G U104C U108C A124U C128U, the self-cleavage was 2.87.

Take A78G A107G C146A: the self-cleavage was 1.79.

In the case of A79G C120U A138G, the self-cleavage turned out to be 1.59.

Take U85C U100C A138G A141G: the self-cleavage amounted to 0.

On to U91C A129U U143A, for which the self-cleavage is 0.5.

As for G86C A117U U132A, the self-cleavage was 0.03.

U85C U119C A129G: the self-cleavage came out at 0.

With U91C U104C U108C, the self-cleavage stood at 2.3.

For A78U U87A U109C, the self-cleavage was determined as 0.11.

For the variant U81C U108C A140G A142U, the self-cleavage amounted to 0.24.

As to U91C A140G A142G U143A, the self-cleavage was 0.43.

Consider A92G A117G A136G, for which the self-cleavage worked out at 0.

Turning to A78G G86U A140U C146U, the self-cleavage amounted to 0.05.

Turning to U87C U102C U108C, the self-cleavage amounted to 0.84.

Consider U87C U132C A136C, for which the self-cleavage came out at 0.21.

Regarding U87C U132C A136G, the self-cleavage amounted to 0.35.

With A78G A121U C146U, the self-cleavage is 0.49.

For the variant A92G C98U U115C A136G, the self-cleavage stood at 0.07.

In the case of A78G U96C A117G G139C A140G, the self-cleavage was 0.59.

For U87C A136G A141G, the self-cleavage came out at 0.39.

For G83A U108C A117G A140U, the self-cleavage is 1.59.

As for G89U U102C U115A, the self-cleavage was 0.03.

On to A78G U87A U112C U130C A140G, for which the self-cleavage was 0.

On to A79G U96C U112C A124G U143A, for which the self-cleavage worked out at 0.

With G80U U130C U134A, the self-cleavage came to 1.75.

Take G86U U87C G88A: the self-cleavage stood at 0.08.

On to G93U U102C U132C, for which the self-cleavage turned out to be 0.05.

For the variant A78G U109C A129U U143C, the self-cleavage is 1.04.

For the variant A79G U100C A129C, the self-cleavage came to 0.38.

As for A78G U132C A141G, the self-cleavage is 2.01.

Regarding A79U U104C A107G, the self-cleavage worked out at 2.97.

A79G U81A C90U A121U A124G: the self-cleavage is 0.06.

Turning to A78G U85C U115C A136U, the self-cleavage was 0.14.

Regarding G82A A92G A140G, the self-cleavage was determined as 0.08.

As to U87A A92U A136G, the self-cleavage came out at 0.07.

Regarding U85A U96A U134C, the self-cleavage was 0.19.

U81C G88A U134A: the self-cleavage came out at 0.02.

Turning to U85C A92U U115A, the self-cleavage was determined as 0.21.

Consider G82A U115A G126A U132C, for which the self-cleavage was determined as 2.56.

As to A79G A92U A141G, the self-cleavage came out at 0.39.

In the case of A79G C90A U104C, the self-cleavage was found to be 0.02.

On to U91A U100C A129G, for which the self-cleavage is 2.06.

Consider U87C G89A U115C U119A, for which the self-cleavage stood at 0.02.

For the variant U81C C103U U115C, the self-cleavage amounted to 1.15.

A77U U81A C95A: the self-cleavage was 0.11.

As to A79G U104C C116A U130A, the self-cleavage worked out at 2.08.

On to U87C A107U U130C, for which the self-cleavage stood at 0.14.

For C90G U112C G127A, the self-cleavage came out at 0.02.

G83A U87C U100C U119G: the self-cleavage is 0.51.

For the variant G82A U109C U119C, the self-cleavage came out at 2.01.

Take A77U G86A U100A U102C: the self-cleavage was 0.04.

Consider A92G U100G C118U, for which the self-cleavage turned out to be 0.

As for A94G A121G A141G, the self-cleavage came to 0.45.

For G82A U102C U112C C146U, the self-cleavage was found to be 2.22.

As to U81C A92U U100A, the self-cleavage came to 0.28.

In the case of A78G U115C A124U, the self-cleavage stood at 1.05.

On to G88A U104A U109A, for which the self-cleavage is 0.06.

As to A79U U85C G88A, the self-cleavage is 0.08.

For the variant A77U A141G A142G, the self-cleavage came to 1.02.

For A92G U112C G135A, the self-cleavage was found to be 0.04.

In the case of A78U U96A A140G, the self-cleavage was 0.11.

For the variant U87C U115G U119A, the self-cleavage is 0.

Regarding A78G U100C U108C, the self-cleavage is 0.38.

On to A79G A92G A136U G144A, for which the self-cleavage worked out at 0.

For the variant G88A U100A A121G G122C, the self-cleavage is 0.02.

Regarding A79G U115A A141G, the self-cleavage was 1.64.

U85C C99U U143C: the self-cleavage was found to be 0.06.

Consider G82A U102C U109C, for which the self-cleavage worked out at 1.64.

On to U81A A117C G127U U134C, for which the self-cleavage was 2.3.

Consider G86A C113U A124G, for which the self-cleavage was 0.08.

As for A79U U109C A117U A129G, the self-cleavage was determined as 1.61.

G82A A124G U134C G135U: the self-cleavage turned out to be 2.35.

G82A U112C A117G: the self-cleavage was determined as 1.49.

Consider U85C C99U U104C, for which the self-cleavage was 0.17.

For A94G A129G A138G, the self-cleavage came to 0.81.

As to A77G U102C A138G A141G, the self-cleavage came to 1.47.

Take U87C C90U A94G: the self-cleavage was determined as 0.03.

As for U85A A92G C95U U143A, the self-cleavage was 0.66.

For A78U G97U A129U, the self-cleavage was 0.07.

For U91G U102C A140G, the self-cleavage is 0.18.

Regarding U85C U96A U100C A129G, the self-cleavage is 0.

For the variant G82A U100C U102C, the self-cleavage was found to be 2.42.

Regarding A78G U115C A140G, the self-cleavage stood at 0.74.

Consider U81A U85A C90A, for which the self-cleavage was determined as 0.13.

Consider A92C U96C G127U A142G, for which the self-cleavage is 0.

As for A78G A79G G86A C118U, the self-cleavage was found to be 0.01.

Regarding U87A A94U A138G, the self-cleavage amounted to 0.07.

Regarding U87C G88U U109C, the self-cleavage was 0.11.

Consider A78U U115C A138G, for which the self-cleavage came to 2.17.

Take A79G A124G U143A: the self-cleavage is 0.68.

In the case of A79G A129U A136U, the self-cleavage came to 1.08.

A94G A107G U112C A138G: the self-cleavage was found to be 0.77.

Regarding A79U G89A G105A, the self-cleavage came out at 0.04.

With C90U G106U U119A A138U U143C, the self-cleavage stood at 0.04.

G86A U115C U134C A141G: the self-cleavage was determined as 0.04.

With G86A C123U A136G A140U, the self-cleavage stood at 0.09.

On to A77U A94G U112C, for which the self-cleavage came out at 0.09.

In the case of A79G A94G A129G A140G, the self-cleavage is 0.66.

Turning to A79G A94C U132C, the self-cleavage came to 0.12.

For the variant U91G G125U U132C A142G, the self-cleavage was determined as 0.

Take U81C U85C U130C: the self-cleavage came out at 1.25.

As for U85A U100C A117U, the self-cleavage was 0.09.

Take U81G G86U U91C C103U: the self-cleavage stood at 0.03.

Consider A77G U130C U132G, for which the self-cleavage was determined as 1.78.

On to A79G C90A A129U, for which the self-cleavage is 0.05.

For the variant U87A U115A A142G, the self-cleavage stood at 0.05.

As to A92G U119A A129G, the self-cleavage worked out at 0.

Take U87C U104A A124G: the self-cleavage was determined as 0.09.

Regarding U85A A92C U134C, the self-cleavage is 0.34.

In the case of U91C U109C U143C, the self-cleavage amounted to 0.19.

For the variant U87A U96A U100C, the self-cleavage stood at 0.16.

As for U81C U108C G127A, the self-cleavage amounted to 2.27.

For A79G U91A A136G, the self-cleavage amounted to 0.77.

Turning to U85C A124G U132A, the self-cleavage was 0.

On to U91C U109C A117U, for which the self-cleavage was determined as 0.45.

As for G82A A94G G114A, the self-cleavage came out at 0.24.

With U87A A138G A140G A141G, the self-cleavage was 0.15.

In the case of A78G A94G A129U, the self-cleavage was found to be 0.26.

A78U U85C U130C: the self-cleavage came out at 0.29.

For the variant U91C U104C G144A, the self-cleavage was found to be 0.9.

For G82A A94G U132C, the self-cleavage came to 0.27.

In the case of A78G A129U A140U, the self-cleavage came out at 1.

As for U91A U104C A124C, the self-cleavage came out at 0.34.

In the case of U85C U102C A142G, the self-cleavage is 0.14.

Turning to A78U U100C A140G, the self-cleavage was determined as 2.7.

Regarding A79G U96A U108C, the self-cleavage was 0.04.

As to G86A U109A A141G, the self-cleavage was determined as 0.07.

On to U91A C99U A142G, for which the self-cleavage was determined as 0.26.

Turning to A77G U115C A138G, the self-cleavage turned out to be 2.63.

Consider A79G A94G G122U A140U, for which the self-cleavage is 0.3.

With A78G A92U U104A, the self-cleavage is 0.39.

U85C U104C A140G: the self-cleavage came to 0.

As to U85C A94U G125A A129G A136G, the self-cleavage worked out at 0.16.

Consider U91C C131U A138G, for which the self-cleavage came out at 0.9.

For the variant U81A U96A U115C, the self-cleavage is 0.08.

Regarding U81A U85C U112C, the self-cleavage was 0.31.

Take G88A U104G A136G: the self-cleavage stood at 0.07.

With U81C U100C U119G, the self-cleavage was 0.

With U81A U100A C123U, the self-cleavage came out at 1.77.

As for G83A U87C U115A, the self-cleavage came to 0.19.

On to A79G U96C U109C, for which the self-cleavage was found to be 0.

As to U87C U134C A142G, the self-cleavage was determined as 0.33.

For the variant U91C A140U A141U, the self-cleavage turned out to be 0.87.

For the variant U87C A94U U130C, the self-cleavage was 0.17.
